These are yes or no findings as the source states them, for the method shown. Binding seen in cells or lysates may run through a third protein. Some results given as binding are weak or reduced against the parent protein; the word gives no strength.
T1: phospholipid scramblase-1 (PLSCR1) (human (endogenous in CaSki and HaCAT)) (UniProt O15162)
T1 sequence: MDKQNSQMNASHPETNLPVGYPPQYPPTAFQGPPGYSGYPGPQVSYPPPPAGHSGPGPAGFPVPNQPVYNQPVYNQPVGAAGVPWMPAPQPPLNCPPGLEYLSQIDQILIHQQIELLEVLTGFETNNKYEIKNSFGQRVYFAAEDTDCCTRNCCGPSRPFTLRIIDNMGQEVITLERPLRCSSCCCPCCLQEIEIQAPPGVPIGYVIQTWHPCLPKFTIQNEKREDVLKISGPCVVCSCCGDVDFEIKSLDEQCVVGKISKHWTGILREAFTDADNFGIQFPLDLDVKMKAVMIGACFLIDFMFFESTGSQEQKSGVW

Protein sequences, listed by entry. Tags and fused reporters are not part of them. Residues count along the entry.
UniProt Q69467, residues 26-393: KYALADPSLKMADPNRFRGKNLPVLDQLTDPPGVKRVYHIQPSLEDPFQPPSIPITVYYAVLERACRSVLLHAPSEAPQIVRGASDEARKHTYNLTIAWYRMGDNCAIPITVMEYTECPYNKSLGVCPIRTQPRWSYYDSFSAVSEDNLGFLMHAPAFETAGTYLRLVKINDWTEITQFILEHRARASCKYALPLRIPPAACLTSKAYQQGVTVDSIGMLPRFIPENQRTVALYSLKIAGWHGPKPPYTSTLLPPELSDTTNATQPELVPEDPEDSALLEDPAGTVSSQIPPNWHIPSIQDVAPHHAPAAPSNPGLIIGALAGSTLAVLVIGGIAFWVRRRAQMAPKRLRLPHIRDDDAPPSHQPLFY
UniProt Q69091, residues 26-394: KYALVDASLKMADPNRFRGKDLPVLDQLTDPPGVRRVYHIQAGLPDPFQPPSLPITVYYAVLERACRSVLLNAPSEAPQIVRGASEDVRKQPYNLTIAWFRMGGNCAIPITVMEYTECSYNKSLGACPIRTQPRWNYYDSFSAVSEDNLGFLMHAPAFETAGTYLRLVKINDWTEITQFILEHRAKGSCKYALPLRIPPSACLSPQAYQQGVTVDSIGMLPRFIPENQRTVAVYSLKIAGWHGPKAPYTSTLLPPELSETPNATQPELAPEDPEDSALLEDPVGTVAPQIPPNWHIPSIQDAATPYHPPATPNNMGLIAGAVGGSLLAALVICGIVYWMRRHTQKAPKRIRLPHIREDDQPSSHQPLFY
UniProt P10185, residues 20-224: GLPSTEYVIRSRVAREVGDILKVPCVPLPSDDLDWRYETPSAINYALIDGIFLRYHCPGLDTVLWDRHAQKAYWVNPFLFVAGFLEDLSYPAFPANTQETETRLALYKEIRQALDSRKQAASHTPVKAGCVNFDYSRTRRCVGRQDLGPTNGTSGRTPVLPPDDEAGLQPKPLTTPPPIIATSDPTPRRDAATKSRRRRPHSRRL
UniProt P06477, residues 19-838: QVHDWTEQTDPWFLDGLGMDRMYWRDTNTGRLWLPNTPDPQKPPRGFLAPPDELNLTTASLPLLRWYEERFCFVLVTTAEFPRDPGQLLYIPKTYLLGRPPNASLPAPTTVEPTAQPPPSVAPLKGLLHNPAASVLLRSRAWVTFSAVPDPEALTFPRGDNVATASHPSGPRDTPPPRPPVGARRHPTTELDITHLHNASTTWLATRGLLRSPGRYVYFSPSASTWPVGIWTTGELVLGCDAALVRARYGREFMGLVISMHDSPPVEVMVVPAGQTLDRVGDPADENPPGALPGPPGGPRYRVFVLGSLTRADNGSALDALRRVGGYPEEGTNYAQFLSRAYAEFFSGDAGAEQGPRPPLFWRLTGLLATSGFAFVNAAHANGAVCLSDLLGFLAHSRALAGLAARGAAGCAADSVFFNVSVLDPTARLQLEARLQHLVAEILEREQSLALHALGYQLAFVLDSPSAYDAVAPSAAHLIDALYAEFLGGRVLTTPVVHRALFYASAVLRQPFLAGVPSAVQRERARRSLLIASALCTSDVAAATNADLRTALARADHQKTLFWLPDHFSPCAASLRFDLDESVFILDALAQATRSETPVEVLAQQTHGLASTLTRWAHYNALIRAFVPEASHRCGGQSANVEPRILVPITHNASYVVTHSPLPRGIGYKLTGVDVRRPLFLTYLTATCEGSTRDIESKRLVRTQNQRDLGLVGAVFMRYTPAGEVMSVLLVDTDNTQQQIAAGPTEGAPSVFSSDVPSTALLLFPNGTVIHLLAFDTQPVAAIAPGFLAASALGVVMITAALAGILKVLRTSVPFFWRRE

T2: HSV-2 glycoprotein L (gL-2) of HSV-2(G) (HSV-2 (strain G)) (UniProt P28278)
T2 sequence: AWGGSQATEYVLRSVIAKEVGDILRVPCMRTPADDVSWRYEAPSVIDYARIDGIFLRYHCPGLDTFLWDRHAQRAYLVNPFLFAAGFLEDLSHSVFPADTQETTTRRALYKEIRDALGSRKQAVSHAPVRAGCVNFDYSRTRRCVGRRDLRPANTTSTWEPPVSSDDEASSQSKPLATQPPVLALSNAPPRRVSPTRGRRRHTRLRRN

T3: HSV-2 glycoprotein H (gH-2) of HSV-2(G) (HSV-2 (strain G)) (UniProt P89445)
T3 sequence: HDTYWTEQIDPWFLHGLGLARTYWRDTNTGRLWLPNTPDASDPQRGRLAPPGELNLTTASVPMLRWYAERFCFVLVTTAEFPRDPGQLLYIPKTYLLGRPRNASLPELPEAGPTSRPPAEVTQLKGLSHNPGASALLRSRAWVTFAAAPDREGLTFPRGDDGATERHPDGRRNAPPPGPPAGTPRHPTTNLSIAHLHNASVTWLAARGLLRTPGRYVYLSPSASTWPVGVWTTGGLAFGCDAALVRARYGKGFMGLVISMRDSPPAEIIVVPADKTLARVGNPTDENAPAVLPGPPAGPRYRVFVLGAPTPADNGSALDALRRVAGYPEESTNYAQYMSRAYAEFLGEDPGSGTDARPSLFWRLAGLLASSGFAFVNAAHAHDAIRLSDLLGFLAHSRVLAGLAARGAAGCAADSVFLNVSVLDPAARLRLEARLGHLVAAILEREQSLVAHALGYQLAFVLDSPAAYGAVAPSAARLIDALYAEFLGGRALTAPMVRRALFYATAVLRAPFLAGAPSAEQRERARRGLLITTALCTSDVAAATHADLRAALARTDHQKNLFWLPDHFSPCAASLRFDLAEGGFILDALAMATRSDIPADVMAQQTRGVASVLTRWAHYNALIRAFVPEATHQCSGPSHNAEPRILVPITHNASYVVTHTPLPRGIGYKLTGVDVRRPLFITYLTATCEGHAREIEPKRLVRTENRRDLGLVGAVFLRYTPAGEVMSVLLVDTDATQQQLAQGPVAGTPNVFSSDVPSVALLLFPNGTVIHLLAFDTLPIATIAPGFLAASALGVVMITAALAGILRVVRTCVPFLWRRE

B1: HSV-2 glycoprotein L (gL-2) of HSV-2(G) (protein, UniProt P28278 17-224)
chain: T2 sequence
B2: phospholipid scramblase-1 (PLSCR1) (protein, UniProt O15162 1-318)
chain: T1 sequence
B3: HSV-2 glycoprotein H (gH-2) of HSV-2(G) (protein, UniProt P89445 19-838)
chain: T3 sequence

Columns and labels:
[1] = target: T1, phospholipid scramblase-1 (PLSCR1) (human (endogenous in CaSki and HaCAT)); experiment: proximity ligation; CaSki cells synchronously infected with HSV-2(G) or HSV-1(KOS), fixed 15 min after the shift to 37°C; murine serotype-common mAbs to gD, gB, gL or gH with rabbit polyclonal anti-PLSCR1; Duolink probes
[2] = target: T1, phospholipid scramblase-1 (PLSCR1) (human (endogenous in CaSki and HaCAT)); experiment: proximity ligation; CaSki cells synchronously infected with gH- or gL-deletion viruses of HSV-2(G) or HSV-1(KOS) (non-complemented ΔgH, ΔgL; complemented ΔgL-2+/-), fixed 15 min after the shift to 37°C; mAb to gL or gH with rabbit anti-PLSCR1
[3] = target: T1, phospholipid scramblase-1 (PLSCR1) (human (endogenous in CaSki and HaCAT)); experiment: co-IP; CaSki cells, serum-starved, synchronously infected with HSV-2(G) (5 pfu/cell), lysed in RIPA buffer 15 min after the temperature shift; IP with mouse anti-gL, mouse anti-gH or rabbit anti-PLSCR1, protein A-agarose; supernatant, pellet and lysate blotted
[4] = target: T2, HSV-2 glycoprotein L (gL-2) of HSV-2(G) (HSV-2 (strain G)); experiment: as above
[5] = target: T3, HSV-2 glycoprotein H (gH-2) of HSV-2(G) (HSV-2 (strain G)); experiment: as above

Molecule | binding [1] | binding [2] | binding [3] | binding [4] | binding [5]
HSV-2 glycoprotein D (gD-2) of HSV-2(G) (from UniProt Q69467 26-393) | no binding | – | – | – | –
HSV-1 glycoprotein D of HSV-1(KOS) (from UniProt Q69091 26-394) | no binding | – | – | – | –
HSV-1 glycoprotein B of HSV-1(KOS) (from UniProt P06437 31-904) | no binding | – | – | – | –
HSV-1 glycoprotein L (gL-1) of HSV-1(KOS) (from UniProt P10185 20-224) | binds | binds | – | – | –
HSV-1 glycoprotein H (gH-1) of HSV-1(KOS) (from UniProt P06477 19-838) | no binding | no binding | – | – | –
B1 | binds | binds | binds | – | –
B2 | – | – | – | binds | no binding
B3 | no binding | no binding | no binding | – | –
